Measured values: PubChem BioAssay AID686979 (National Center for Advancing Translational Sciences (NCATS), 2013)
Among all 420,000 compounds or so, about 50,000 (12%) were called active. The inconclusive results got no clear call from the source; some entries with a clear call stand among them for comparison. Calls follow the shape of the dose curve; as a rule, active = well fitted inhibition curve with a large enough effect; inconclusive = small, poorly fitted or top-dose-only effect; inactive = flat fitted curve, though single readings scatter. No potency is given beside an inconclusive call; the fits are too rough.

assay: qHTS for Inhibitors of human tyrosyl-DNA phosphodiesterase 1 (TDP1): qHTS in cells in presence of CPT; conditions: chicken DT40 Tdp1-/-;hTDP1 cells + 20 nM CPT, ATP luminescence, 48 h; activity change, negative = growth inhibition: at 46.2 µM (top of the series); also: nearly all actives have a fitted effect of over 55% in size
Method in brief: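 Chicken DT40 Tdp1-/- cells complemented with human TDP1, 400 cells/well, exposed to compounds plus 20 nM camptothecin for at least 48 h at 37 C; viability read as ATP content by CellTiter-Glo luminescence.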
% is scaled to controls: 0 for no effect and ±100 for the full control effect; potency is read from the fitted curve at half-maximal effect; tags tell the direction and shape of the fitted curve.

Question: Which Potency does the source give for `COc1cc(CNC(=O)c2ccc3c(c2)N(C)C(=O)C2CCCCN32)cc(OC)c1OC` (stereo not drawn) here?
Answer: inconclusive [inhibitor, single point]

Question: Which Potency does the source give for `Cc1ccccc1S(=O)(=O)c1c(C)cc(C)n(C(C)C)c1=O` here?
Answer: inconclusive [inhibitor, single point]

Question: Which Potency does the source give for `Cc1ccc(-c2nc3cnccn3c2Nc2ccc3c(c2)OCO3)o1` here?
Answer: inconclusive [inhibitor, single point]

Question: With `N#CC1c2ccccc2C=CN1C(=O)N(c1ccccc1)c1ccccc1` (stereo not drawn) as the compound, how does the Potency read?
Answer: inconclusive [inhibitor, single point]

Question: For `O=C(Cn1c(=O)oc2cc(S(=O)(=O)N3CCCCC3)ccc21)N1CCc2ccccc2C1`, which “activity change, negative = growth inhibition” value is on record?
Answer: inactive: -26.8%

Question: Which Potency does the source give for `O=C(Cn1cc(C(=O)c2ccco2)c2ccccc21)Nc1ccccc1F` here?
Answer: inconclusive [inhibitor, partial curve, poor fit]

Question: For `CC(C)CNC(=S)Nc1ccccc1F`, which Potency is on record?
Answer: inconclusive [inhibitor, partial curve, poor fit]

Question: For `CCCCCC(=O)N1C[C@@H](O)[C@H](n2cc(-c3ccc(F)cc3)nn2)C[C@@H]1c1ccc(Cl)cc1`, which Potency is on record?
Answer: active: 16.4 µM

Question: Which Potency does the source give for `CCOc1cc(C2NC(=O)CCC2[N+](=O)[O-])cc(Br)c1OC` (stereo not drawn) here?
Answer: inconclusive [inhibitor, single point]

Question: Which Potency does the source give for `Cc1nn(Cc2ccc(F)cc2)c(C)c1NC(=O)c1noc2c1CCCCC2` here?
Answer: inconclusive [inhibitor, single point]

Question: For `O=C(c1ccccc1)c1cccc(NC(=O)c2ccc(Br)o2)c1`, which Potency is on record?
Answer: inconclusive [inhibitor, single point]

Question: For `COc1ccc(S(=O)(=O)N2CCN(Cc3c[nH]c4ccccc34)CC2)cc1`, which Potency is on record?
Answer: inconclusive [inhibitor, partial curve]

Question: With `Cc1c(-c2nc(-c3ccc4c(c3)OCO4)no2)nnn1-c1ccc(Br)cc1F` as the compound, how does the Potency read?
Answer: inconclusive [inhibitor, single point]

Question: With `COc1ccc(/C=N/NC(=O)c2cccnc2)cc1CSc1ccccn1` as the compound, how does the Potency read?
Answer: active: 6.51 µM

Question: For `CC(C)CN(C(=O)c1cccc(S(=O)(=O)N2CCCCC2)c1)C1CCS(=O)(=O)C1` (stereo not drawn), which Potency is on record?
Answer: inactive

Question: Which Potency does the source give for `COc1cc(C(C)=O)ccc1OCCN1CCC(Cc2ccccc2)CC1` here?
Answer: inconclusive [inhibitor, single point]

Question: For `CSc1ncnc2c1ncn2CCCN1CCN(Cc2cccc3ccccc23)CC1`, which Potency is on record?
Answer: inconclusive [inhibitor, single point]

Question: Which Potency does the source give for `COc1ccc(C(=O)N2N=C(c3cccc(OC)c3)CC2(O)C(F)(F)F)cc1` (stereo not drawn) here?
Answer: inconclusive [inhibitor, full curve, poor fit]
